Reference: the supplement of paper PMC10338343
± gives the standard deviation. This is a selection; strong and weak results do not stand in their true shares.

These sequences were tested on MIWI (PIWIL1) piRISC loaded with L1MC piRNA (30 nt) (assay: pre-steady-state target cleavage rate (min^-1); MIWI and MILI are mouse PIWI proteins and EfPiwi is from a freshwater sponge; tags in brackets are library labels; higher = faster piRNA-guided slicing of the target). Conditions: guide: L1MC piRNA 5'p-UAACUAAAUACUAUGCAAGCUGUAGGUCCU; auxiliary factor: 500 nM mouse GTSF1.
Outline: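 A transcribed, DNA-blocked target RNA library (0.1 nM) and 1 nM active affinity-purified piRISC bearing one synthetic guide were incubated in HEPES–potassium acetate buffer at 33 °C for 0–8 or 0–960 min, either with or without 500 nM GTSF1 partner protein. Uncleaved targets were sequenced, normalised to depth and to weakly complementary targets, and pooled over three trials, with k3 capped at 0.0001 min^-1. The pre-steady-state cleavage rate was derived with a burst-and-steady-state fit.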

Sequence | pre-steady-state target cleavage rate
UCCUGGAUCAGCUUGCAUAGUAUAUUCAAA | 0.0232 ± 0.0077
UCCACCUACAGCUUGCAUAGAUUUUAGAAA | 0.0447 ± 0.017
UGCUGCUACAGCUUGCAUAGUAUUUACAAA | 0.253 ± 0.041
AGGACCUACAGCUUGCAUAGUAAUUUCAAA | 0.373 ± 0.073
UCCUGGAACAGGAUGCAUAGUAUUUAGUAA | 0.202 ± 0.027
UCCACCUACAGCUUCCAUAGUAUUUUGUUA | 0.0349 ± 0.016
UCCUGGAUCAGCUAGCAUAGUAUUUUCAAA | 0.0506 ± 0.015
UCCUCCUACAGCUUGCUAUGUAUUUAGUAA | 0.0593 ± 0.013
UCCUGGAUGUCGAACGUAUCUAUUAUCUUA | < 0.0001
UCCUGCUACAGCUUGCAGUAGUAUUUAGUUA | 0.00673 ± 0.0053
UCGACCUACAGCAACCAUAGUAUUUAGUUA | 0.216 ± 0.019
UCCUCCUACAGCUUGCAUAGUAAAAAGAAA | 0.204 ± 0.052
AGGACCUACAGCUUGCAUAGCUAUUUAGUUA | 0.136 ± 0.05
UCCUGGAUGAGCUUGCAUAGUAAAAAGUUA | 0.0147 ± 0.0047
UCCACCUAGUCCUUGCAUAGUAUUUACAAA | 0.127 ± 0.03
UCCUGGAUGUCGAACGAAAGUUUUUAGUUA | < 0.0001
UCGACCUACAGCAUGCAUAGUAUUUUCAAA | 0.415 ± 0.059
AGGACCUACAGCUUGCAUACUAUUUUCAAA | 0.217 ± 0.044
UGGACCUACUCGUUGCAUAGUAUUUAGAAA | 0.0338 ± 0.0054

Sequence | pre-steady-state target cleavage rate
UCCUCCUACAGGAUGCAUAGUAUUUACAAA | 0.253 ± 0.041
UCCUCCUACAGCUUGCAUAGUUAAUACAAA | 0.0247 ± 0.011
UCCUCCUACAGCUUGCAUUCAAUUUAGUUA | 0.0119 ± 0.0059
UGGACCUACAGCUUGCUAAGUAUUUACAAA | 0.00712 ± 0.0031
UCCUGGUACAGCUACCAUAGUAUUUAGUAA | 0.184 ± 0.029
UGGACCUACAGCAUGCAUAGUAUUUUCAAA | 0.304 ± 0.052
UCGACCUACAGCUUGCAUAGUUAAAUCAAA [g10:g28:cont:t1A] | 0.157 ± 0.044
UCCUGGUACAGCUUGCUAUAGUAUUUAGUUA | 0.027 ± 0.009
UCCACCUAGUCCUUGCAUAGUAUUUUCAAA | 0.0843 ± 0.021
UCCUGGAUGUGCAUGCUUAGUAUUUAGUUA | 0.0054 ± 0.0048
UCCUGGAACACCUAGCAUAGUAUUUAGUUA | 0.151 ± 0.031
UCCACCUUGUGCUUGCAUAGUAUUUUCAAA | 0.0664 ± 0.015
AGGACCUACAGCUUGCAUUCUAUUUACAAA | 0.17 ± 0.055
UCCUGGAACAGCUUCCAUACUAUUUAGUUA | 0.0129 ± 0.006
UGGACCUACAGCUUGCGAUAGUAUUUAGUUA | 0.0216 ± 0.0064
UCCUGGAUGAGCUUGCAUGUAUUUAGUUA | 0.00564 ± 0.0034
UCCUGGUACAGCUUGCAUACAAUUUAGUUA | 0.0125 ± 0.0058
AGGACCUACAGGAUGCAUAGUAUUUAGAAA | 0.377 ± 0.049
